{"source": "paper PMC3672086", "about": "“TWEAK-Independent Fn14 Self-Association and NF-κB Activation Is Mediated by the C-Terminal Region of the Fn14 Cytoplasmic Domain” (PLoS ONE, 2013)", "proteins": {"B1": {"name": "endogenously expressed Fn14 (receptor)", "chain": "not shown", "notes": "human Fn14; 129-aa precursor cleaved by signal peptidase into the mature 102-aa protein; also called endogenous Fn14; source: endogenous, lysates of three cancer cell lines (A375 named in the text)"}, "B2": {"name": "myc epitope-tagged full-length, wild-type human Fn14 (Fn14-FL) (receptor)", "chain": "not shown", "notes": "The signal peptide is cut off in the cell; the mature protein starts with the myc tag; also called Fn14-WT; Fn14-FL-myc; source: HEK293 or HEK293/NF-κB-luc/Fn14-HA cells, transiently transfected (pcDNA6/Fn14-FL), on cells or in lysate; not shown: myc, N-terminal, kept"}, "B3": {"name": "myc-tagged Fn14 with C104S substitution (receptor)", "chain": "not shown", "notes": "also called Fn[…]S; source: HEK293 cells, transiently transfected (pcDNA6), in lysate; not shown: myc, N-terminal, kept"}}, "key": {"[1]": {"molecular_target": "the molecule itself", "assay": "SDS-PAGE under non-reducing conditions with Western blot; lysates of three cancer cell lines with endogenous Fn14; no DTT, not heated; anti-Fn14 (CST) blot"}, "[2]": {"molecular_target": "the molecule itself", "assay": "cross-linking; cell surface proteins of transfected HEK293/NF-κB-luc/Fn14-HA cells cross-linked with 1 mM BS3 in PBS, 20 min, room temperature; lysis in HNTG buffer, reducing SDS-PAGE, anti-myc Western blot"}, "[3]": {"molecular_target": "the molecule itself", "assay": "SDS-PAGE under non-reducing conditions with Western blot; HNTG lysates of transfected HEK293 cells; no DTT in loading buffer, sample not heated; anti-myc blot; shows disulfide-linked dimers formed during lysis"}}}
{"protein": "B1", "values": [{"measurement": "stoichiometry N", "setting": "[1]", "value": 2}]}
{"protein": "B2", "values": [{"measurement": "stoichiometry N", "setting": "[2]", "value": 2}]}
{"protein": "B3", "values": [{"measurement": "stoichiometry N", "setting": "[3]", "value": 2}]}
